# Test results as given in PubChem BioAssay AID1347417 (National Center for Advancing Translational Sciences (NCATS), 2020).
# The whole screen tested about 120,000 compounds, of which about 5,300 (4.4%) were called active. Inconclusive means that the source gave no clear call. Such entries were picked first, then a sample of the others. Calls follow the shape of the dose curve; as a rule, active = well fitted inhibition curve with a large enough effect; inconclusive = small, poorly fitted or top-dose-only effect; inactive = no such curve, though single readings can be large or run the other way. Potencies of inconclusive entries are doubtful fits and often do not repeat.
# Assay: qHTS Primary assay for Inhibitors of Plasmodium falciparum Dd2 growth in vitro; also: nearly all actives have a fitted effect of over 65% in size;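 as to activity, negative = inhibition: plate controls were DMSO vehicle for no effect and reference drug for full effect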
# Conditions: P. falciparum Dd2 growth, SYBR Green, 72 h; activity, negative = inhibition: at 28.9 µM (top of the series) unless noted; series mostly up to 28.9 µM
# Summary of the method: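 Readout: SYBR Green fluorescence, 485 nm excitation, 535 nm emission, after ~16 h lysis at 37C. Before that, Dd2-infected red cells (2.5% hematocrit) grew 72 h with compound, 29 uM top final concentration.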
# Potency is read from the fitted curve at half-maximal effect; tags tell the direction and shape of the fitted curve.
SMILES,Potency,"activity, negative = inhibition",outcome
CCOC(=O)c1ccccc1NC(=O)Cn1c(-c2cnccn2)nc(C)c(C)c1=O,"inconclusive: 20 µM [inhibitor, single point]",,
O=C(CCn1c(=O)c2cccn2c2ccc(F)cc21)NCCc1ccccc1,"inconclusive: 14.1 µM [inhibitor, partial curve, poor fit]",,
COC[C@@]12CC[C@@H](N3CCOCC3)C[C@H]1CCN(Cc1cccc3nonc13)C2,"inconclusive: 7.94 µM [inhibitor, partial curve]",,
COCCN1C(=O)CCC2(C(=O)NCc3c(C)n[nH]c3C)CCCC=C12 (stereo not drawn),,inactive: -3.42%,
COCCC(=O)N[C@H]1CC[C@]2(C)CCC([C@H](C)C(=O)N3CCCCC3)[C@H](O)[C@H]2[C@@H]1C (stereo partly drawn),,,inactive [at 44.1 µM]
O=C(CN1CCN(c2cc(C3CC(O)C3)ncn2)CC1)N1CCCC1 (stereo not drawn),,inactive: -5.7%,
CC(C)C(=O)N1CCC(CCOc2ccc(F)cc2)C1 (stereo not drawn),"inconclusive: 7.94 µM [inhibitor, partial curve, poor fit]",,
COc1ccc2c(c1)C(C[C@H]1CN(C(=O)C(C)(C)C)CC[C@H]1CC(=O)O)=NCC2,,inactive: -11.4% [at 44.1 µM],
NC(=O)NCC(=O)NC1CCCN(c2nc3ccccc3s2)C1 (stereo not drawn),,inactive: -14.3%,
Cc1ccccc1NC(=O)CN1C(=O)C(c2ccccc2)=NC12CCCCC2,,,inactive
c1ncc(CN2CC(Oc3ccc4c(c3)OCO4)C2)s1,,,inactive [at 44.1 µM]
COC[C@H]1CCCN1C(=O)[C@@H](C)C1CC[C@@]2(C)CC[C@H](NC(=O)c3cncnc3)[C@@H](C)[C@@H]2[C@H]1O (stereo partly drawn),"inconclusive: 11.2 µM [inhibitor, single point]",,
Cn1nccc1C(=O)N1CCNc2cnc(Nc3ccccc3)nc2C1,,,inactive [at 44.1 µM]
CC(=O)NC[C@H]1O[C@H](Cc2cc(-c3ccc(F)cc3)on2)CC[C@@H]1O,,,inactive [at 44.1 µM]
COc1cccc(C(=O)N2CC(Oc3ccccc3-c3nc(-c4cnccn4)no3)C2)c1,"inconclusive: 1 µM [inhibitor, full curve, poor fit]",,
O=C([C@@H]1C[C@H](Oc2ccccc2)CN1C(=O)CCc1c[nH]c2ccccc12)N1CCOCC1,"inconclusive: 1.58 µM [inhibitor, full curve, poor fit]",,
O=C(c1ccccc1OCC1CCCN(Cc2cccc(O)c2)C1)N1CCCC1 (stereo not drawn),"inconclusive: 1.26 µM [inhibitor, partial curve, poor fit]",,
COCCNc1nc2c([S+](=O)([O-])c3cc(OC)ccc3OC)nnn2c2ccccc12,,inactive: -16.7%,
Cc1ccc(C)c(S(=O)(=O)c2nnn3c2nc(N2CCOCC2)c2sccc23)c1,"inconclusive: 17.8 µM [inhibitor, single point]",,
Cn1ncc2c(N3CCN(S(N)(=O)=O)CC3)nc(-c3cccnc3)nc21,"inconclusive: 11.2 µM [inhibitor, single point]",,
CCN1C(=O)c2ccccc2S(=O)c2ccc(C(=O)NCc3ccc(F)cc3)cc21 (stereo not drawn),"inconclusive: 12.6 µM [inhibitor, partial curve]",,
O=C(c1ccsc1)N1CCC2(CC1)CC(N(C(=O)c1ccccc1)C1CC1)CCO2 (stereo not drawn),,inactive: -9.76%,
CS(=O)(=O)N1CCCN(C(=O)CCCc2ccccc2)CCNC(=O)CC1c1ccccc1 (stereo not drawn),,inactive: -20.2%,

SMILES,Potency,"activity, negative = inhibition",outcome
CN(C)c1ccc(CNC2(Cc3cc(COc4ccccc4)on3)COC2)cc1,"inconclusive: 17.8 µM [inhibitor, partial curve, poor fit]",,
O=C1CC(c2ccccc2)N(C(=O)CNC(=O)c2ccccn2)CCCCCCN1 (stereo not drawn),,inactive: -5.96%,
COc1cccc(Nc2ccc3c(n2)C(C)(C(=O)NC2CCN(C)CC2)CN(C)C3)c1 (stereo not drawn),"inconclusive: 0.562 µM [inhibitor, full curve, poor fit]",,
Cc1ccc(NCc2ccccc2-c2nnc(-c3ccccc3Cl)o2)c(C)c1,"inconclusive: 5.62 µM [inhibitor, single point]",,
COc1cc(OC)c(NC(=O)Cn2c(N(C)Cc3ccccc3)nc(C)cc2=O)cc1Cl,"inconclusive: 7.08 µM [inhibitor, partial curve, poor fit]",,
COc1cc(OC)cc(-c2onc(C)c2C(=O)NCc2cccc(Cl)c2)c1,,,inactive
c1ccc(-c2nc(NCc3cc4n(n3)CCCNC4)c3ccccc3n2)cc1,active: 7.94 µM,,
CCn1ccc(C(=O)N2CCCC2c2nc(C3CCOCC3)no2)n1 (stereo not drawn),,inactive: 3.8%,
COC(=O)C(=O)N1CCN2C(=O)N(Cc3ccc(C)cc3)C[C@H]2C1,,inactive: -12.4% [at 44.1 µM],
CC(=O)N[C@H]1CCN(CCC(=O)Nc2ccc(F)c(Cl)c2)C1,,inactive: -4.52%,
COc1ccccc1NC(=O)Cn1c(=O)n(Cc2ccco2)c(=O)c2cccnc21,,inactive: 12.7%,
O=C1NC(=NC2CCCCC2)C2(CCCN(Cc3ccccc3)C2)N1c1cccnc1 (stereo not drawn),"inconclusive: 12.6 µM [inhibitor, partial curve]",,
O=c1ccc(-c2cc(-c3cccc(N4CCOCC4)c3)cn3cncc23)c[nH]1,active: 7.94 µM,,
O=c1cc(-c2ccccc2)c2cc(Cl)c3c(c2o1)CN(Cc1ccccc1)CO3,active: 12.6 µM,,
COc1ccc(CC(=O)NCc2ccc3c(c2)CCN3C(=O)c2ccc(Cl)cc2)cc1OC,,,inactive
Cc1ccc2c(c1)c1c(c(=O)n(-c3ccccc3C)c(=O)n1CC(=O)NCc1ccccc1)n2C,"inconclusive: 17.8 µM [inhibitor, single point]",,
COc1ccc(C(=O)NC2CCN(c3cc(-c4ccc(Cl)cc4)[nH]n3)C2)cc1OC (stereo not drawn),"inconclusive: 10 µM [inhibitor, single point]",,
CN(C)C[C@@H]1CN(c2ncccn2)C[C@H]1NS(=O)(=O)c1ccc(C#N)cc1,"inconclusive: 7.94 µM [inhibitor, single point]",,
COc1cccc(Nc2cnc3ccc(-c4ccccc4OC)nn23)c1,"inconclusive: 3.55 µM [inhibitor, single point]",,
O=C(c1ccccc1)N1CCC(Oc2nccnc2N2CCOCC2)C1 (stereo not drawn),,inactive: -0.718%,
CCN(c1ccccc1)c1nnc(NC(=O)Nc2cccc(Cl)c2C)s1,,inactive: -7.34%,
Cn1ccc2c(C(=O)NCCc3cnc[nH]3)nc(-c3cccnc3)cc21,"inconclusive: 31.6 µM [inhibitor, single point]",,
CSc1ccc(-c2nc3ncccn3c2Nc2ccc(C)c(C)c2)cc1,"inconclusive: 10 µM [inhibitor, single point]",,

SMILES,Potency,"activity, negative = inhibition",outcome
Cc1cccc(-c2c3c(=O)n(C)c(=O)n(C)c3cn2-c2cc(N)c(Cl)cc2Cl)c1,"inconclusive: 11.2 µM [inhibitor, single point]",,
COc1ccc(CN2C[C@@H](F)[C@@H](OCc3nc4ccc(C)cc4[nH]3)C2)cc1,"inconclusive: 0.631 µM [inhibitor, full curve, poor fit]",,
Cc1cn2nc(C(=O)NCc3ccc(F)cc3F)cc2c(N(C)Cc2ccccc2)n1,"inconclusive: 17.8 µM [inhibitor, single point]",,
CCOC(=O)c1c(-c2ccccc2)csc1NC(=O)c1nc(S(=O)(=O)CC)ncc1Cl,"inconclusive: 11.2 µM [inhibitor, single point]",,
CCN(CC)C(=O)c1sc(NC(=O)C(C)Sc2nc(-c3ccccc3)cc(C(F)(F)F)n2)c(C(=O)OC)c1C (stereo not drawn),active: 0.355 µM,,
CCC(=O)Nc1ccc(S(=O)(=O)NCc2ccc3c(c2)CCN3C(=O)c2ccc(C)cc2)cc1,"inconclusive: 17.8 µM [inhibitor, single point]",,
NC1CC(c2cc(N3CCCN(C(=O)c4ccoc4)CC3)ncn2)C1 (stereo not drawn),"inconclusive: 0.1 µM [inhibitor, full curve, poor fit]",,
COCCOC1CCOC2(CCN(C(=O)c3ccc4ccccc4n3)CC2)C1 (stereo not drawn),"inconclusive: 12.6 µM [inhibitor, partial curve, poor fit]",,
COCCN1CCCCCC(O)c2cc(C(=O)NCCN3CCCC3)ccc21 (stereo not drawn),"inconclusive: 7.08 µM [inhibitor, partial curve, poor fit]",,
O=C1NCCCCCCN(Cc2ccncc2)[C@@H]2CN(C3CCC3)CC[C@H]12,,inactive: 13.3%,
COc1cccc(CN2C[C@@H]3C(C(=O)NCc4ccccc4)=NO[C@@H]3C2)c1,"inconclusive: 3.16 µM [inhibitor, full curve, poor fit]",,
Cc1cc(Cl)ccc1NC(=O)c1cnc(-c2ccccc2)nc1-c1ccncc1,"inconclusive: 8.91 µM [inhibitor, partial curve]",,
Cn1cc(-c2ccc(F)cc2)c2nc(CO)cn2c1=O,,inactive: 0.875% [at 44.1 µM],
COc1ccc(CNC(=O)[C@H]2O[C@H](CCN3CCN(c4ccccc4)CC3)CC[C@@H]2O)cc1,"inconclusive: 3.55 µM [inhibitor, partial curve, poor fit]",,
CCCc1nnc(C[C@@H]2C[C@@H](C(C)C)[C@H](CN3CCN(C(C)=O)CC3)C=C2C)o1,active: 11.2 µM,,
CN1CCC2(CC1)CN(C(=O)c1ccccc1)Cc1ccccc1O2,"inconclusive: 1 µM [inhibitor, partial curve, poor fit]",,
CC(C)(C)OC(=O)N1CCC(c2c(C(=O)NCc3cccs3)cnn2-c2ccc(F)cc2F)CC1,active: 3.98 µM,,
O=C(NC1CC1)[C@@H]1C[C@H](Oc2ccccc2)CN1C(=O)c1ccc2ncccc2c1,,inactive: -0.539%,
C#CCNC(=O)c1nc(-c2ccccc2OC)c2cnccn12,"inconclusive: 10 µM [inhibitor, single point]",,
O=C(Nc1ccc(Cl)cc1Cl)c1cn2c(n1)CN(C(=O)OCc1ccccc1)CC2,,inactive: -8.36%,
O=C1Nc2ccccc2CC12CCCN2Cc1ccccc1 (stereo not drawn),active: 10 µM,,
Cn1cc(S(=O)(=O)N2CCCCCC2)cc1C(=O)NCc1ccccc1Cl,"inconclusive: 11.2 µM [inhibitor, single point]",,
